The record followed here is the supplement of paper PMC3694890.

± gives the uncertainty stated by the source. This is one part of the list. A small y stands for phosphotyrosine.

To fix the notation:
B1: PLCG1_783/A1 (peptide)
chain: yVEANP
B2: PLCG1_977/A1 (peptide)
chain: yRDMSS
B3: PLCG1_1253/A1 (peptide)
chain: yQQPFE
B4: PDGFRB_692/A1 (peptide)
chain: yLHRNK
B5: PDGFRB_716/A1 (peptide)
chain: ySNALP
B6: PDGFRB_686/A1 (peptide)
chain: yGDLVD
B7: AXL_703/A1 (peptide)
chain: yRQGRI
B8: PKN2_273/A1 (peptide)
chain: ySLEQR
B9: PKN2_635/A1 (peptide)
chain: ySGIQE
B10: PLCG1_506/A1 (peptide)
chain: yPHYFV
B11: PKN2_810/A1 (peptide)
chain: yGDRTS
B12: PLCG1_472/A1 (peptide)
chain: yEEVPT
B13: PLCG2_1217/A1 (peptide)
chain: yDTHQN
B14: PLCG1_379/A1 (peptide)
chain: yHGHTL
B15: PLCG2_1245/A1 (peptide)
chain: yQEKCN
B16: AXL_821/A1 (peptide)
chain: yVNMDE
B17: PDGFRB_970/A1 (peptide)
chain: yQQVDE
B18: PDGFRB_778/A1 (peptide)
chain: yVPSAP
B19: PLCG1_775/A1 (peptide)
chain: yEGRNP
B20: PDGFRB_740/A1 (peptide)
chain: yMDMSK
B21: PDGFRB_775/A1 (peptide)
chain: yDNYVP
B22: PDGFRB_857/A1 (peptide)
chain: yISKGS
B23: PDGFRB_751/A1 (peptide)
chain: yVPMLD
B24: PDGFRB_771/A1 (peptide)
chain: yMAPYD
B25: PDGFRB_589/A1 (peptide)
chain: yDSTWE
B26: PDGFRB_562/A1 (peptide)
chain: yEIRWK
B27: AXL_779/A1 (peptide)
chain: yALMSR
B28: PDGFRB_934/A1 (peptide)
chain: yEIMQK
B29: PLCG1_481/A1 (peptide)
chain: ySENDI
B30: PLCG2_1197/A1 (peptide)
chain: ySSCRQ
B31: PDGFRB_763/A1 (peptide)
chain: yADIES
B32: PKN2_624/A1 (peptide)
chain: yKPDTP
B33: PLCG1_771/A1 (peptide)
chain: yGALYE
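Further: phosphopeptide probes on the chip at 1–4 µM, lysate proteins bound in 20 mM Tris pH 7.0 buffer with 140 mM NaCl, 1% Triton X-100 and 5% glycerol.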

In the first experiment the target is GRB2 (endogenous complexes from cell lysate), P62993. Put plainly: GRB2 complex binding differential signal (pY peptide minus Ala control peptide) (fluorescence intensity units); higher = stronger GRB2 complex binding. As to conditions: MCF7.
Take B1: the “GRB2 complex binding differential signal” value turned out to be 2300 ± 370.

B2: the “GRB2 complex binding differential signal” value turned out to be 1240 ± 340.

For B3, the “GRB2 complex binding differential signal” value worked out at 2630 ± 580.

Turning to B4, the “GRB2 complex binding differential signal” value amounted to 235 ± 130.

As for B5, the “GRB2 complex binding differential signal” value was 15900 ± 2100.

As for B6, the “GRB2 complex binding differential signal” value turned out to be 77.4 ± 590.

As for B7, the “GRB2 complex binding differential signal” value was determined as 713 ± 430.

As for B8, the “GRB2 complex binding differential signal” value came out at 1920 ± 260.

Consider B9, for which the “GRB2 complex binding differential signal” value is 924 ± 190.

Consider B10, for which the “GRB2 complex binding differential signal” value was found to be 120 ± 360.

For B11, the “GRB2 complex binding differential signal” value came out at 1230 ± 360.

For the molecule B12, the “GRB2 complex binding differential signal” value stood at 1680 ± 300.

Turning to B13, the “GRB2 complex binding differential signal” value is 1360 ± 430.

In the case of B14, the “GRB2 complex binding differential signal” value was -146 ± 250.

As to B15, the “GRB2 complex binding differential signal” value stood at 820 ± 310.

Regarding B16, the “GRB2 complex binding differential signal” value stood at 18700 ± 3500.

On to B17, for which the “GRB2 complex binding differential signal” value was determined as 1550 ± 460.

Consider B18, for which the “GRB2 complex binding differential signal” value is 1280 ± 590.

For the molecule B19, the “GRB2 complex binding differential signal” value was 2810 ± 790.

For the molecule B20, the “GRB2 complex binding differential signal” value was found to be 666 ± 230.

In the case of B21, the “GRB2 complex binding differential signal” value came out at 785 ± 240.

Regarding B22, the “GRB2 complex binding differential signal” value amounted to 1170 ± 820.

On to B23, for which the “GRB2 complex binding differential signal” value is -2190 ± 1700.

As to B24, the “GRB2 complex binding differential signal” value is 3830 ± 1600.

Regarding B25, the “GRB2 complex binding differential signal” value is 8.45 ± 160.

As to B26, the “GRB2 complex binding differential signal” value came to 186 ± 140.

Take B27: the “GRB2 complex binding differential signal” value came to 1730 ± 560.

Take B28: the “GRB2 complex binding differential signal” value amounted to 991 ± 500.

Take B29: the “GRB2 complex binding differential signal” value is 11600 ± 7300.

Take B30: the “GRB2 complex binding differential signal” value was 2820 ± 860.

With B31, the “GRB2 complex binding differential signal” value amounted to 225 ± 160.

On to B32, for which the “GRB2 complex binding differential signal” value stood at 3420 ± 550.

In the case of B33, the “GRB2 complex binding differential signal” value is -87.7 ± 210.

The experiment is the same for the next values; noted with them: MCF10A.
As to B1, the “GRB2 complex binding differential signal” value is 1960 ± 1400.

As to B2, the “GRB2 complex binding differential signal” value was found to be 791 ± 360.

B3: the “GRB2 complex binding differential signal” value was 1100 ± 310.

Take B4: the “GRB2 complex binding differential signal” value is 195 ± 320.

Regarding B5, the “GRB2 complex binding differential signal” value worked out at 9840 ± 2100.

For B6, the “GRB2 complex binding differential signal” value was -348 ± 650.

For B7, the “GRB2 complex binding differential signal” value was found to be 720 ± 340.

With B8, the “GRB2 complex binding differential signal” value stood at 600 ± 700.

Consider B9, for which the “GRB2 complex binding differential signal” value worked out at 681 ± 230.

Consider B10, for which the “GRB2 complex binding differential signal” value was -16 ± 140.

Take B11: the “GRB2 complex binding differential signal” value was 1320 ± 760.

As to B12, the “GRB2 complex binding differential signal” value turned out to be 2140 ± 960.

With B13, the “GRB2 complex binding differential signal” value was found to be 1510 ± 480.

B14: the “GRB2 complex binding differential signal” value turned out to be 189 ± 260.

In the case of B15, the “GRB2 complex binding differential signal” value is 673 ± 320.

Regarding B16, the “GRB2 complex binding differential signal” value amounted to 12500 ± 2500.

In the case of B17, the “GRB2 complex binding differential signal” value amounted to 1310 ± 200.

Regarding B18, the “GRB2 complex binding differential signal” value was 1650 ± 780.

On to B19, for which the “GRB2 complex binding differential signal” value worked out at 2300 ± 510.

Regarding B20, the “GRB2 complex binding differential signal” value came to 800 ± 230.

In the case of B21, the “GRB2 complex binding differential signal” value amounted to 941 ± 300.

In the case of B22, the “GRB2 complex binding differential signal” value amounted to 2330 ± 500.

Consider B23, for which the “GRB2 complex binding differential signal” value worked out at 319 ± 260.

On to B24, for which the “GRB2 complex binding differential signal” value came out at 1360 ± 530.

As for B25, the “GRB2 complex binding differential signal” value is 34.8 ± 120.

B26: the “GRB2 complex binding differential signal” value is -39.1 ± 940.

For the molecule B27, the “GRB2 complex binding differential signal” value came out at 533 ± 200.

Turning to B28, the “GRB2 complex binding differential signal” value came to 906 ± 180.

Take B29: the “GRB2 complex binding differential signal” value is 561 ± 270.

As to B30, the “GRB2 complex binding differential signal” value turned out to be 1200 ± 280.

For B31, the “GRB2 complex binding differential signal” value came out at 126 ± 170.

As to B32, the “GRB2 complex binding differential signal” value amounted to 2250 ± 610.

For B33, the “GRB2 complex binding differential signal” value is 185 ± 150.

The same experiment, now with this note: MDA-MB-231.
On to B1, for which the “GRB2 complex binding differential signal” value turned out to be 1010 ± 380.

For the molecule B2, the “GRB2 complex binding differential signal” value is 933 ± 440.

As for B3, the “GRB2 complex binding differential signal” value amounted to 1140 ± 370.

Regarding B4, the “GRB2 complex binding differential signal” value came to 481 ± 320.

Regarding B5, the “GRB2 complex binding differential signal” value came to 4440 ± 1000.

B6: the “GRB2 complex binding differential signal” value came to 333 ± 250.

As to B7, the “GRB2 complex binding differential signal” value is 319 ± 270.

For the molecule B8, the “GRB2 complex binding differential signal” value came out at 478 ± 280.

As to B9, the “GRB2 complex binding differential signal” value came to 1190 ± 360.

In the case of B10, the “GRB2 complex binding differential signal” value amounted to 130 ± 280.

Take B11: the “GRB2 complex binding differential signal” value stood at 462 ± 500.

As to B12, the “GRB2 complex binding differential signal” value was 1340 ± 500.

In the case of B13, the “GRB2 complex binding differential signal” value worked out at 872 ± 510.

For the molecule B14, the “GRB2 complex binding differential signal” value was 367 ± 370.

As to B15, the “GRB2 complex binding differential signal” value came out at 569 ± 320.

For the molecule B16, the “GRB2 complex binding differential signal” value stood at 6540 ± 1100.

As to B17, the “GRB2 complex binding differential signal” value was found to be 311 ± 260.

For the molecule B18, the “GRB2 complex binding differential signal” value amounted to 957 ± 420.

For the molecule B19, the “GRB2 complex binding differential signal” value is 560 ± 380.

B20: the “GRB2 complex binding differential signal” value was 916 ± 330.

For the molecule B21, the “GRB2 complex binding differential signal” value came out at 1290 ± 530.

Turning to B22, the “GRB2 complex binding differential signal” value was 1260 ± 410.

Turning to B23, the “GRB2 complex binding differential signal” value amounted to 1010 ± 490.

On to B24, for which the “GRB2 complex binding differential signal” value was determined as 1590 ± 590.

On to B25, for which the “GRB2 complex binding differential signal” value worked out at 134 ± 260.

B26: the “GRB2 complex binding differential signal” value amounted to 550 ± 290.

On to B27, for which the “GRB2 complex binding differential signal” value amounted to 436 ± 390.

For the molecule B28, the “GRB2 complex binding differential signal” value amounted to 1140 ± 520.

Take B29: the “GRB2 complex binding differential signal” value came to 1080 ± 400.

With B30, the “GRB2 complex binding differential signal” value turned out to be 467 ± 320.

For the molecule B31, the “GRB2 complex binding differential signal” value was 457 ± 380.

Turning to B32, the “GRB2 complex binding differential signal” value was 664 ± 280.

In the case of B33, the “GRB2 complex binding differential signal” value was 470 ± 260.

Staying with this experiment, now noted: T47D.
Take B1: the “GRB2 complex binding differential signal” value stood at 934 ± 940.

With B2, the “GRB2 complex binding differential signal” value stood at 2660 ± 1400.

Take B3: the “GRB2 complex binding differential signal” value is 1980 ± 1200.

With B4, the “GRB2 complex binding differential signal” value worked out at 240 ± 960.

As to B5, the “GRB2 complex binding differential signal” value turned out to be 13800 ± 3300.

As for B6, the “GRB2 complex binding differential signal” value was 434 ± 1000.

Take B7: the “GRB2 complex binding differential signal” value was determined as 282 ± 1600.

For B8, the “GRB2 complex binding differential signal” value amounted to 971 ± 1200.

For B9, the “GRB2 complex binding differential signal” value was 1950 ± 1100.

With B10, the “GRB2 complex binding differential signal” value stood at 76.8 ± 920.

As for B11, the “GRB2 complex binding differential signal” value worked out at 560 ± 1200.

Turning to B12, the “GRB2 complex binding differential signal” value was 1360 ± 1700.

Turning to B13, the “GRB2 complex binding differential signal” value was found to be 190 ± 970.

Take B14: the “GRB2 complex binding differential signal” value worked out at 412 ± 950.

Turning to B15, the “GRB2 complex binding differential signal” value is 191 ± 950.

B16: the “GRB2 complex binding differential signal” value came out at 11800 ± 3200.

For the molecule B17, the “GRB2 complex binding differential signal” value turned out to be 251 ± 1300.

As to B18, the “GRB2 complex binding differential signal” value turned out to be 1750 ± 3400.

For B19, the “GRB2 complex binding differential signal” value turned out to be 783 ± 1700.

As for B20, the “GRB2 complex binding differential signal” value stood at 1190 ± 1600.

Turning to B21, the “GRB2 complex binding differential signal” value amounted to 3470 ± 1200.

On to B22, for which the “GRB2 complex binding differential signal” value was determined as 1930 ± 1200.

Regarding B23, the “GRB2 complex binding differential signal” value came out at 1310 ± 1500.

On to B24, for which the “GRB2 complex binding differential signal” value turned out to be 1900 ± 1400.

For B25, the “GRB2 complex binding differential signal” value turned out to be 180 ± 1300.

For B26, the “GRB2 complex binding differential signal” value is 693 ± 2700.

For B27, the “GRB2 complex binding differential signal” value stood at 1060 ± 900.

Turning to B28, the “GRB2 complex binding differential signal” value was 1330 ± 2100.

Turning to B29, the “GRB2 complex binding differential signal” value turned out to be 2200 ± 1600.

Regarding B30, the “GRB2 complex binding differential signal” value came to 720 ± 3200.

As to B31, the “GRB2 complex binding differential signal” value was 403 ± 1200.

As for B32, the “GRB2 complex binding differential signal” value came to 486 ± 1300.

As to B33, the “GRB2 complex binding differential signal” value worked out at 508 ± 970.
